Counter-ions that a name gives are not always drawn. In all, about 2,800 compounds were measured (“cell viability relative to vehicle”: median about 0.98, lowest 2% from about 0.45 on). Some of the results follow.
Each molecule was assayed on NCI-H2228 alectinib-DTP (assay: cell viability relative to vehicle (fraction of vehicle); NCI-H2228 is an ALK-positive lung cancer line and DTP means drug-tolerant persister; higher = less growth inhibition). Settings: 100 nM; treatment time 6 days.
Method in brief: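 The 3114-agent TargetMol anti-cancer compound library was tested at 100 nM for 6 days on parental NCI-H2228 cells and on persister cells derived with 1000 nM of a targeted drug for 13 days. ATP readout by the CellTiter-Glo 3D Cell Viability Assay gave cell viability relative to DMSO vehicle-treated cells.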

Structure (SMILES)	cell viability
Cc1cc(-n2cccc2)c(S(C)(=O)=O)cc1C(=O)N=C(N)N [Eniporide]	1.04
CC(C)[C@H](NC(=O)[C@H](CC(=O)O)NC(=O)[C@H](CCCCN)NC(=O)[C@@H](N)CCCN=C(N)N)C(=O)N[C@@H](Cc1ccc(O)cc1)C(=O)O [Thymopentin]	1.05
C[C@]12CC[C@@H]3c4ccc(O)cc4CC[C@H]3[C@@H]1CCC2=O [Aquacrine]	1.23
CCN(CC)CCOc1ccc(Nc2nc(-c3ccccc3NC(=O)CCN3CCN(C)CC3)nc3ccccc23)cc1	1.16
CCCCCCCCc1ccc(CCC(N)(CO)CO)cc1 [Fingolimod hydrochloride]	0.92
CCC(CC)CC1(C(=O)Nc2ccccc2SC(=O)C(C)C)CCCCC1 [Dalcetrapib]	1.02
CN1[C@@H](CC(=O)c2ccccc2)CCC[C@H]1C[C@H](O)c1ccccc1 [Lobeline hydrochloride]	1.02
Cn1cc(-c2ccc3nnc(C(F)(F)c4ccc5ncccc5c4)n3n2)cn1	1.03
c1ccc2[nH]c(-c3cscn3)nc2c1 [Thiabendazole]	1.01
CN1CC2c3ccccc3Oc3ccc(Cl)cc3C2C1 (centres undefined) [Asenapine Maleate]	0.871
Oc1cc(CN2CCOCC2)c(O)cc1CN1CCOCC1	1.05
COC1=C2C[C@@H](C)C[C@H](OC)[C@H](O)[C@@H](C)/C=C(\C)[C@H](OC(N)=O)[C@@H](OC)/C=C\C=C(/C)C(=O)NC(=CC1=O)C2=O [Geldanamycin]	1
CC1CS(=O)(=O)CCN1/N=C/c1ccc([N+](=O)[O-])o1 (centres undefined) [Nifurtimox]	1
COC(=O)c1cc(OC)c2c(c1-c1c(CO)cc(OC)c3c1OCO3)OCO2 [Bicyclol]	0.993
COc1cc(Nc2ncc(F)c(Nc3ccc4c(n3)N(COP(=O)(O)O)C(=O)C(C)(C)O4)n2)cc(OC)c1OC [Fostamatinib]	0.812
COc1ccc(-c2cc(=O)c3c(O)cc(O[C@@H]4O[C@H](CO[C@@H]5O[C@@H](C)[C@H](O)[C@@H](O)[C@H]5O)[C@@H](O)[C@H](O)[C@H]4O)cc3o2)cc1O [Diosmin]	1.08
Cc1nnc(C(C)C)n1C1C[C@H]2CC[C@@H](C1)N2CC[C@H](NC(=O)C1CCC(F)(F)CC1)c1ccccc1 (stereo in doubt) [Maraviroc]	0.978
CC1=C[C@]2(O)O[C@@]3(CC2=C(C)C)[C@@H](C)CC[C@@H]13 [Curcumenol]	0.982
O=c1c2cc(O)c(O)cc2oc2cc(O)c([C@@H]3O[C@H](CO)[C@@H](O)[C@H](O)[C@H]3O)c(O)c12 [Mangiferin]	1.04
CCOc1ccc(-c2nc(-c3cccc4c3CCC4NCCO)no2)cc1OCC (centres undefined)	0.887
CCCS(=O)(=O)Nc1ccc(F)c(C(=O)c2c[nH]c3ncc(-c4ccc(Cl)cc4)cc23)c1F [Vemurafenib]	1.12
C=CC(=O)N1CC/C(=C\c2ccc(F)c([N+](=O)[O-])c2)C(=O)/C(=C/c2ccc(F)c([N+](=O)[O-])c2)C1	1.07
O=C(Nc1c(Cl)cncc1Cl)c1ccc(OC(F)F)c(OCC2CC2)c1 [Roflumilast]	0.981
O=C(O)c1cc(-c2ccc(F)cc2F)ccc1O [Diflunisal]	0.927
C[C@@H]1O[C@@H](O[C@H]2[C@H](Oc3cc(O)c(C(=O)CCc4ccc(O)cc4)c(O)c3)O[C@H](CO)[C@@H](O)[C@@H]2O)[C@H](O)[C@H](O)[C@H]1O [Naringin dihydrochalcone]	1.06

Structure (SMILES)	cell viability
CCCCNC(=O)NS(=O)(=O)c1ccc(C)cc1 [Tolbutamide]	1.12
O[C@H]1[C@H]2c3cc4c(cc3CN3CCC(=C[C@@H]1O)[C@H]23)OCO4 [Lycorine chloride]	0.966
CN(C)C1CCN(C(=O)c2ccc(NC(=O)Nc3ccc(-c4nc(N5CCOCC5)nc(N5CCOCC5)n4)cc3)cc2)CC1 [Gedatolisib]	0.385
O=S(=O)(O)CCS [Mesna]	0.93
CCOc1ccccc1OCCN[C@H](C)Cc1ccc(OC)c(S(N)(=O)=O)c1 [Tamsulosin hydrochloride]	1.01
O=C(O)c1cc2ccccc2oc1=O [Coumarin-3-carboxylic acid]	1.16
C[C@@H](CN1CC(=O)NC(=O)C1)N1CC(=O)NC(=O)C1 [Dexrazoxane HCl]	0.89
CNCCC(Oc1ccc(C(F)(F)F)cc1)c1ccccc1 (centres undefined) [Fluoxetine]	1.13
N=C(N)NCCC[C@H](N)C(=O)O [L-arginine monohydrochloride]	1.19
Cn1nccc1Nc1nccc(-c2ccn([C@H](CO)c3ccc(Cl)c(F)c3)c(=O)c2)n1 [Ravoxertinib]	0.884
CN(C)Cc1cccc(N/C(=C2\C(=O)Nc3cc(C(N)=O)ccc32)c2ccccc2)c1	0.967
Cc1cnc(CNC(=O)c2c(=O)c3ccc(N4CCCN(C)CC4)nc3n3c2sc2ccccc23)cn1	0.809
O=C(Nc1ccccc1C(=O)Nc1ccc(CCO)cc1)c1ccc([N+](=O)[O-])cc1	0.988
C=C1C(=O)O[C@@H]2C[C@@]3(C)CCC[C@H](C)C3=C[C@H]12 [Helenine]	0.903
N#Cc1c(-c2ccccc2)cc(-c2cc(Br)ccc2O)[nH]c1=O	0.907
N#C/C(=C/c1ccc(O)c(O)c1)C(=O)N1CCc2ccccc21 [Tyrphostin AG 528]	1.03
C[C@@]12C[C@@]3(O)O[C@@H](O1)[C@]1(COC(=O)c4ccccc4)[C@H]3C[C@@]12O[C@@H]1O[C@H](CO)[C@@H](O)[C@H](O)[C@H]1O [Paeoniflorin]	1.08
CC(C)=CC[C@H](O)C1=CC(=O)c2c(O)ccc(O)c2C1=O [Alkannin]	0.957
CCC1=C(C)CN(C(=O)NCCc2ccc(S(=O)(=O)NC(=O)N[C@H]3CC[C@H](C)CC3)cc2)C1=O [Glimepiride]	1.19
CCC(C)SSc1ncc[nH]1 (centres undefined)	0.984
Cc1coc2c1C(=O)C(=O)c1c-2ccc2c(C)cccc12 [Tanshinone I]	1.06
Oc1ccc(-c2nc3cc(O)cc(Br)c3o2)cc1	1.01
O=P(O)(O)C(Cl)(Cl)P(=O)(O)O [Disodium clodronate tetrahydrate]	0.96
CCNC(=O)C#Cc1ccc2c(C(=Nc3ccc(CN(C)C)cc3)c3ccccc3)c(O)[nH]c2c1	0.767
C=C(C)C1CC=C(C)CC1 (single isomer, unassigned; (+)) [(+)-Dipentene]	1.03

Structure (SMILES)	cell viability
O=C1CCc2cc(OCCCCc3nnnn3C3CCCCC3)ccc2N1 [Cilostazol]	1.14
Nc1ncnc2c1c(-c1cnc3[nH]ccc3c1)nn2C1CCCC1	0.782
COc1ccc2cc1Oc1ccc(cc1)C[C@H]1c3cc(c(OC)cc3CCN1C)Oc1c(OC)c(OC)cc3c1[C@H](C2)N(C)CC3 [Tetrandrine]	0.974
COc1cc(OC)cc(-c2cc3cnc(N)nc3nc2NC(=O)NC(C)(C)C)c1	0.674
CCCCc1nc(C)c(CC(=S)N(C)C)c(=O)n1Cc1ccc(-c2ccccc2-c2nnn[nH]2)cc1 [Fimasartan]	0.864
Cc1nc(NC(=O)N2CCC[C@H]2C(N)=O)sc1-c1ccnc(C(C)(C)C(F)(F)F)c1 [Alpelisib]	0.785
O=C(Nc1ccc(OC(F)(F)Cl)cc1)c1cnc(N2CC[C@@H](O)C2)c(-c2cc[nH]n2)c1 [Asciminib]	1.03
CC(C)NCC(O)COc1cccc2ccccc12 (centres undefined) [Propranolol hydrochloride]	0.891
COc1ccc2cc([C@@H](C)C(=O)O)ccc2c1 [(R)-Naproxen]	0.94
COC(=O)[C@@H]1[C@H]2C[C@H]3c4[nH]c5ccccc5c4CCN3C[C@@H]2CC[C@@H]1O [Yohimbine hydrochloride]	1.22
CCC1C/C(=C\c2cccnc2)C(=O)/C(=C/c2cccnc2)C1 (centres undefined)	0.98
CC1(C)NC(=O)N(c2ccc([N+](=O)[O-])c(C(F)(F)F)c2)C1=O [Nilutamide]	0.998
Cc1[nH]c(/C=C2\C(=O)Nc3ccc(S(=O)(=O)N(C)c4cccc(Cl)c4)cc32)c(C)c1C(=O)N1CCN(C)CC1	0.896
CCCCCCc1ccc(O)cc1O [Hexylresorcinol]	0.996
O=C(/C=C\n1cnc(-c2cc(C(F)(F)F)cc(C(F)(F)F)c2)n1)NNc1cnccn1 [Selinexor]	0.853
CN(C)Cc1ccc(-c2nc3cccc4c3n2CCNC4=O)cc1	0.995
Cc1cc(C)c(NC(=O)C2CC3CCC2C3)c(C)c1 (centres undefined)	0.981
Cc1cccc(Nc2nc(-c3ccncc3)cs2)c1	0.818
CN(C)CCC(c1ccccc1)c1ccccn1 (centres undefined) [Pheniramine maleate]	1.09
CC(C)CCC[C@@H](C)[C@H]1CC[C@H]2[C@@H]3CC=C4C[C@@H](O)CC[C@]4(C)[C@H]3CC[C@]12C [Cholesterol]	1.12
Nc1ccn([C@@H]2O[C@H](CO)[C@@H](O)[C@H]2O)c(=O)n1 [Cytidine]	1.09
COc1cc(/C=C/CO)cc(OC)c1O[C@@H]1O[C@H](CO)[C@@H](O)[C@H](O)[C@H]1O [eleutheroside-b]	1.1
C[C@@H]1O[C@@H](O[C@@H]2[C@H](O)[C@@H](O)[C@H](O[C@H]3CC[C@@]4(C)C(CC[C@]5(C)C4C=C[C@]46OC[C@@]7(CCC(C)(C)CC74)[C@@H](O)C[C@]65C)C3(C)C)O[C@@H]2CO[C@@H]2O[C@H](CO)[C@@H](O)[C@H](O)[C@H]2O)[C@H](O)[C@H](O)[C@H]1O (some centres undefined) [Saikosaponin C]	0.993
O=c1cc(CN2CCOCC2)occ1OCCCCCSc1ccnc2cc(C(F)(F)F)ccc12	0.875
